Measurements: article PMC4336329 (PLoS ONE, 2015)
Among all 310,000 compounds or so, about 14,000 (4.5%) showed an effect of 50% or more. The effect is printed as a negative number. This is one part of the list.

target: human ether-à-go-go-related gene (hERG) potassium channel (human, UniProt Q12809); assay: primary screen, population patch clamp on CHO cells stably expressing hERG
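Also: peak tail current of the secondary pulse compared with the same well before compound.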

Sequence of human ether-à-go-go-related gene (hERG) potassium channel (Q12809 whole entry, looked up): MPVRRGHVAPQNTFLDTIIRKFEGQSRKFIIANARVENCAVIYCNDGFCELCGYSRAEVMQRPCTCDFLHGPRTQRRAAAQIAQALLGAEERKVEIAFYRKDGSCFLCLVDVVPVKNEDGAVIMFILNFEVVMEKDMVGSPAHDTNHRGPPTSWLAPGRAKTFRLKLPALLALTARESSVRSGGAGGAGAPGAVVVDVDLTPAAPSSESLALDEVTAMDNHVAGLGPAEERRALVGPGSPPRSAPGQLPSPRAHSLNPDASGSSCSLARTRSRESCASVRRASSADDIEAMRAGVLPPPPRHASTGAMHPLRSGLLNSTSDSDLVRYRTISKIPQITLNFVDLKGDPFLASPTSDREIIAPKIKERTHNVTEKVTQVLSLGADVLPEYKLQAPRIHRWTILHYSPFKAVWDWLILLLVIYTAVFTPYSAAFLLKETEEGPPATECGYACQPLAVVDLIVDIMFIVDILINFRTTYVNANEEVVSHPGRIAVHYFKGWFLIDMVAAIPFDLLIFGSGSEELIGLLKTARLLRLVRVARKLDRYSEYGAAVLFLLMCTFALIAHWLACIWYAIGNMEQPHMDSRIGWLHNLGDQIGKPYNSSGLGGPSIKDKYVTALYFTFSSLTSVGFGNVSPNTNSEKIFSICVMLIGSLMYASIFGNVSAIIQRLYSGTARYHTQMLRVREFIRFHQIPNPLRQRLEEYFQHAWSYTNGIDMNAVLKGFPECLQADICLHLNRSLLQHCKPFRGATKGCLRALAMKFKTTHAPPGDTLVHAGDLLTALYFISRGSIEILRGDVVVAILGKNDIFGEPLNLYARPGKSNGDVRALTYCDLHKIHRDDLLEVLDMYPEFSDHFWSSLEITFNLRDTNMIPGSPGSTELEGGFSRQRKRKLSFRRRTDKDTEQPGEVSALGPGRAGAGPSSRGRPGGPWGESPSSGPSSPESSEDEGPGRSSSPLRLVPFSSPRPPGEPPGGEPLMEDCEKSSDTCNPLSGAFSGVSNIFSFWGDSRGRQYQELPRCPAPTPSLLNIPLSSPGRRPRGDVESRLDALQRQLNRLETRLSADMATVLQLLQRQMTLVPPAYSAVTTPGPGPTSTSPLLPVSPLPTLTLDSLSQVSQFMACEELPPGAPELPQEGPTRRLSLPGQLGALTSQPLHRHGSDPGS

Going from COc1ccc2nc(SCC(=O)N3CCN(c4ccc(F)cc4)CC3)c(C#N)cc2c1 to COc1ccc(N2CCN(C(=O)/C(C#N)=C/c3ccccc3)CC2)cc1, the “hERG current change (%, negative = inhibition) at 10uM” value rises from -38.5% to -17.3%.

Compared with C=CCN1C(=O)c2ccc(C(=O)N3CCN(S(=O)(=O)c4ccccc4Br)CC3)cc2C1=O, O=C(c1cc(-c2ccccn2)nc2ccc(Br)cc12)N1CCN(S(=O)(=O)c2ccccc2)CC1 is higher in “hERG current change (%, negative = inhibition) at 10uM” value: -41.2% for the first, 1.37% for the second.

First: COc1ccc(N2C(=O)CC(c3ccc(OC(C)C)cc3)C2=O)cc1 (centres unmarked)
Second: CCCCC1S/C(=N/N=C/c2ccc(OC)cc2)N(Cc2ccc(OC)cc2)C1=O (centres unmarked)
The “hERG current change (%, negative = inhibition) at 10uM” value of the first is lower: 1.78% for the first, 6.95% for the second.

Going from CCOC(=O)Cc1csc(SCc2nc3ccccc3c(=O)[nH]2)n1 to CCOC(=O)c1nc(NCc2ccccc2F)c2ccccc2n1, the “hERG current change (%, negative = inhibition) at 10uM” value rises from -11.2% to -9.15%.

Compared with COC(=O)c1ccc(C2/C(=C(/O)c3ccc(Cl)cc3)C(=O)C(=O)N2C2CCS(=O)(=O)C2)cc1 (centres unmarked), CC1CCN(C2=C(NS(=O)(=O)c3ccc(Cl)cc3)C(=O)c3ccccc3C2=O)CC1 is lower in “hERG current change (%, negative = inhibition) at 10uM” value: 2.45% for the first, -8.29% for the second.

Compared with O=C(O)/C=C/C(=O)NC1CCCCCCCCCCC1, O=C(NC1CCCCC1)C(c1ccccc1)N1CCCC1 (centres unmarked) is higher in “hERG current change (%, negative = inhibition) at 10uM” value: -3.8% for the first, 7.48% for the second.

Compared with Cc1ccc(-n2ncc3c2CC(C)(C)CC3NC(=O)CCCN2CCCCC2=O)cc1 (centres unmarked), Cc1ccc(OCc2ccc(C(=O)N3CCCC3)o2)c([N+](=O)[O-])c1 is lower in “hERG current change (%, negative = inhibition) at 10uM” value: -8.82% for the first, -46.6% for the second.

First: O=C1C=C(c2ccc(-c3ccccc3)c(F)c2)C[C@@H](c2ccc3c(c2)OCO3)C1
Second: CC(c1ccc2c(c1)OCO2)n1c(=S)[nH]c2ccccc2c1=O (centres unmarked)
The “hERG current change (%, negative = inhibition) at 10uM” value of the first is higher: 6.42% for the first, 1.32% for the second.

Compared with CCCCOc1ccc(C(=O)Nc2ccc(N3CCN(C)CC3)cc2)cc1, COc1ccc(C)cc1NC(=O)CCN1CCN(c2ccccc2)CC1 is lower in “hERG current change (%, negative = inhibition) at 10uM” value: -10.2% for the first, -10.3% for the second.

Compared with Cc1ccnc(NC(=O)c2cccc3ccccc23)c1, Cc1ccnc(N/C=C/C(=O)c2ccc(Br)cc2)c1 is higher in “hERG current change (%, negative = inhibition) at 10uM” value: -12.5% for the first, 23.2% for the second.

First: CC(C)Nc1nc(Cl)nc(NN(C)c2nc(N(C)C)nc(N(C)C)n2)n1
Second: CN(C(=O)c1cccc(C#N)c1)c1nnc(-c2cnccn2)s1
The “hERG current change (%, negative = inhibition) at 10uM” value of the first is higher: 3.6% for the first, -3% for the second.

Compared with COc1cc(C)nc(N2CCCC(C(=O)Nc3cc(Cl)ccc3OC)C2)n1 (centres unmarked), COc1ccc(C)cc1NC(=O)c1ccc(S(=O)(=O)N2CCCCC2)cc1 is higher in “hERG current change (%, negative = inhibition) at 10uM” value: 9.96% for the first, 11.6% for the second.

First: CN1CCN(C(=S)NC(=O)/C=C/c2ccccc2Cl)CC1
Second: CN1CCN(CCCN2c3ccccc3Sc3ccc(S(=O)(=O)N(C)C)cc32)CC1.CS(=O)(=O)O
The “hERG current change (%, negative = inhibition) at 10uM” value of the first is higher: 10.9% for the first, -57.4% for the second.

First: Brc1ccc(C2N3CCCN23)cc1 (centres unmarked)
Second: COc1ccc([C@H]2CC(=O)C=C(C#CC(C)(C)C)C2)cc1
The “hERG current change (%, negative = inhibition) at 10uM” value of the first is higher: 1.12% for the first, -9.24% for the second.

First: CC(C)(C)NC(=O)c1nn2c(C(F)(F)F)cc(-c3ccccc3)nc2c1Br
Second: COc1ccc(-c2nnc3c4ccccc4c(C)nn23)cc1
The “hERG current change (%, negative = inhibition) at 10uM” value of the first is higher: 20.8% for the first, -16.4% for the second.

Compared with Cc1ccc2nc(-c3ccc(S(=O)(=O)N4CCCCC4)cc3)cn2c1, Cc1ccc(S(=O)(=O)N(CC(=O)NCC2CCCO2)Cc2cccc(C)c2)cc1 (centres unmarked) is lower in “hERG current change (%, negative = inhibition) at 10uM” value: 14.8% for the first, -60.5% for the second.

Going from CCOP(=S)(OCC)SCC(=O)NC(C)(CC)C(=O)O (centres unmarked) to CCOCCCNC(=O)C(NC(=O)Cc1cccs1)c1ccc(Cl)cc1 (centres unmarked), the “hERG current change (%, negative = inhibition) at 10uM” value rises from -0.514% to -0.0503%.

First: CCN(CC)CC(=O)N1CCCC(N2CCN(c3cccc(C(F)(F)F)c3)CC2)C1 (centres unmarked)
Second: O=C(Nc1cc(C(F)(F)F)ccc1F)C1CCCC1
The “hERG current change (%, negative = inhibition) at 10uM” value of the first is lower: -10.5% for the first, 14.7% for the second.

Going from CC(C)(C)NCC(O)COc1cccc2c1CCC(=O)N2.Cl (centres unmarked) to COC(=O)C1(C)NC(=O)c2ccccc2N1 (centres unmarked), the “hERG current change (%, negative = inhibition) at 10uM” value rises from 4.47% to 5.81%.

Compared with Cc1ccc(C2CC2/C(=N/O)c2ccc(F)cc2)cc1 (centres unmarked), Cc1ccc(S(=O)(=O)NCC(=O)OC(C)C(=O)c2ccccc2)cc1 (centres unmarked) is lower in “hERG current change (%, negative = inhibition) at 10uM” value: 19.5% for the first, -2.84% for the second.

Going from Cc1cc(NC(=O)Cc2ccccc2)nc2c1c(=O)oc1ccccc12 to Cc1cccc(-n2c(-c3ccccc3)nc3ccccc3c2=O)n1, the “hERG current change (%, negative = inhibition) at 10uM” value falls from 2.06% to -2.86%.

Compared with CC1CN=C(N(C(=S)Nc2ccccc2)c2cccc(C(F)(F)F)c2)S1 (centres unmarked), NNC(=O)c1cccn(Cc2cccc(C(F)(F)F)c2)c1=O is higher in “hERG current change (%, negative = inhibition) at 10uM” value: 8.26% for the first, 21.5% for the second.

Going from O=C(COc1ccccc1)Nc1ccc(F)cc1 to Cc1ccc(OCC(=O)NCc2cccs2)cc1, the “hERG current change (%, negative = inhibition) at 10uM” value falls from 9.12% to -1.85%.

Compared with CC1CCCCN1S(=O)(=O)c1ccc(C(=O)Nc2nnc(C3=COCCO3)o2)cc1 (centres unmarked), O=S(=O)(c1ccc(Cl)cc1)c1nc(-c2ccco2)oc1N1CCOCC1 is lower in “hERG current change (%, negative = inhibition) at 10uM” value: 1.04% for the first, -55.4% for the second.

First: Cc1[nH]c2ccccc2c1/C=N/O
Second: c1ccc(SCc2nc3ccccc3[nH]2)cc1
The “hERG current change (%, negative = inhibition) at 10uM” value of the first is higher: 30.3% for the first, -9.85% for the second.

Compared with CCc1nn(CC(=O)NC2CCN(Cc3ccccc3)CC2)c(=O)c2cc3cc(F)ccc3n12, COCCN(C(=O)CN1CCc2ccccc2C1)c1c(N)n(Cc2ccccc2)c(=O)[nH]c1=O is higher in “hERG current change (%, negative = inhibition) at 10uM” value: -11.8% for the first, -3.43% for the second.

Compared with O=C1NC(=O)N(CC2CCCO2)C(=O)/C1=C/c1cccs1 (centres unmarked), O=C(CN1C(=O)CCC1=O)Nc1nc(-c2cccs2)cs1 is lower in “hERG current change (%, negative = inhibition) at 10uM” value: 14.1% for the first, -8.31% for the second.

First: COc1cc2c(cc1C1NC(=S)NC(C)=C1C(N)=O)CCCC2 (centres unmarked)
Second: Cc1ccc(/C(N)=N/OC(=O)CCC2CCCCC2)cc1
The “hERG current change (%, negative = inhibition) at 10uM” value of the first is higher: 9.6% for the first, -10.7% for the second.

Compared with O=c1c2ccccc2nc(CSc2nnnn2-c2ccccc2)n1-c1ccccc1, O=c1c2ccccc2nnn1COc1ccc(Cl)cc1Br is higher in “hERG current change (%, negative = inhibition) at 10uM” value: 2.18% for the first, 22.2% for the second.

Going from CCC(C(=O)c1ccc2ncccc2c1)c1ccccc1 (centres unmarked) to CCOc1ncccc1C(=O)OCC(=O)NC(=O)c1ccccc1, the “hERG current change (%, negative = inhibition) at 10uM” value rises from -52.7% to 0.726%.

Compared with C=CCn1c(=S)[nH]c2nc3c(cc2c1=O)COC(C)(C)C3, C=CCn1c(-c2csc(-c3ccc(Cl)cc3)n2)n[nH]c1=S is lower in “hERG current change (%, negative = inhibition) at 10uM” value: 12.7% for the first, 10.7% for the second.

First: CCC1Oc2ccccc2N(CC(=O)NC2CCCC2)C1=O (centres unmarked)
Second: O=C(NC1CC2CCCC(C1)N2S(=O)(=O)c1ccccc1)c1ccccc1 (centres unmarked)
The “hERG current change (%, negative = inhibition) at 10uM” value of the first is higher: 1.88% for the first, -44% for the second.

First: COc1ccc2c(=O)c(N3C(=O)c4ccccc4C3=O)c(C)oc2c1
Second: Cc1noc(NS(=O)(=O)c2ccc(N3Cc4ccccc4C3=O)cc2)c1C
The “hERG current change (%, negative = inhibition) at 10uM” value of the first is lower: -7.66% for the first, 8.82% for the second.

Compared with NC(=O)NC(c1ccc(Cl)cc1)c1ccccc1Cl (centres unmarked), CN(CCOc1ccc(Cl)cc1)CC(=O)Nc1ccc(OC(F)(F)F)cc1 is higher in “hERG current change (%, negative = inhibition) at 10uM” value: -2.96% for the first, 8.27% for the second.

Going from NS(=O)(=O)c1ccc(-c2ccc(C=C3C(=O)NC(=O)NC3=O)o2)cc1 to COc1ccc(CN=Cc2c(C(F)(F)F)[nH][nH]c2=O)cc1, the “hERG current change (%, negative = inhibition) at 10uM” value rises from 4.09% to 10.8%.

First: O=C(O)Cc1c[nH]c2cccc(O)c12
Second: Cc1cccc(NC(=O)c2nc[nH]c2C(=O)Nc2ccccc2[N+](=O)[O-])c1
The “hERG current change (%, negative = inhibition) at 10uM” value of the first is lower: 9.84% for the first, 13.5% for the second.

First: Cc1cc(=O)n2nc(N3CCCC(C(=O)N4CCOCC4)C3)sc2n1 (centres unmarked)
Second: O=C(N1CCOCC1)C(F)(F)C(F)(F)C(F)(F)C(F)(F)C(=O)N1CCOCC1
The “hERG current change (%, negative = inhibition) at 10uM” value of the first is lower: 3.1% for the first, 5.81% for the second.

First: O=S1(=O)CCN2C(=N1)Sc1c2ccc2c1CCCC2
Second: CC(C)CCn1c(=O)c2ccccc2n2c(CN3CCCC3)nnc12
The “hERG current change (%, negative = inhibition) at 10uM” value of the first is higher: 6.41% for the first, -2.3% for the second.

Going from Cc1ccc(/C=N/NC(=O)CSc2nc3ccccc3n2C)s1 to CCN1/C(=C\C=C2\C(=O)N(C)C(=S)N2C)Sc2ccccc21, the “hERG current change (%, negative = inhibition) at 10uM” value rises from -17.4% to 24%.

Going from COc1ccccc1CN1Cc2cccc3c2[C@@H](CC1=O)[C@H](O)[C@H](O)C3 to CN(C(=O)COC(=O)c1ccccc1Nc1ccccc1)C1CCS(=O)(=O)C1 (centres unmarked), the “hERG current change (%, negative = inhibition) at 10uM” value falls from 4.43% to -41.4%.

First: O=C(Nc1ccc(C(=O)O)cc1)/C(=C\c1ccc2c(c1)OCO2)NC(=O)c1ccc(Br)o1
Second: COc1ccc(C(=O)Nc2ccccc2C(=O)NCc2ccco2)cc1
The “hERG current change (%, negative = inhibition) at 10uM” value of the first is higher: 17.6% for the first, -24.9% for the second.

Compared with COC(=O)c1sc(NC(=O)c2ccc([N+](=O)[O-])o2)c(C#N)c1C, CCc1ccc(C(=O)Nc2cc(C)on2)o1 is higher in “hERG current change (%, negative = inhibition) at 10uM” value: 12.3% for the first, 15.5% for the second.

Going from Oc1ccc(/C=N/Nc2ccc(C(F)(F)F)cn2)c(O)c1 to COc1ccc(-n2c(C)c(C)c3c(NCCO)ncnc32)cc1, the “hERG current change (%, negative = inhibition) at 10uM” value falls from 25.3% to 8.73%.

Compared with Cc1ccc(OCc2cc(C(=O)N(C)CCc3ccccn3)no2)cc1C, O=C(OC1CCOC1=O)c1cncc(Br)c1 (centres unmarked) is higher in “hERG current change (%, negative = inhibition) at 10uM” value: -33.6% for the first, -15.7% for the second.

CC(C)CC(NC(=O)OC(C)(C)C)c1cn([C@@H](CCCCNC(=O)OC(C)(C)C)C(=O)N2CCN(C(=O)OC(C)(C)C)CC2)nn1 (some centres unmarked) was tested, and the “hERG current change (%, negative = inhibition) at 10uM” value was -5.01%.
